This passage reports binding signal results from publication PMC12136788.

This is one part of the list.

The labels stand for the following.
B1: chr17:58740566:58740567:+_ENSG00000170836_ENST00000305921|hu_hu|FALSE|FALSE (ssRNA)
RNA: GGGAGUUCUACAGUCCGACGAUCUUUUUGGUCCAUGACAGUGUUUGUUGAAUUAGUAGGCACAAGGCCAAUUGGAAGGCUAUUAUUCAAAGAAUCAUGUAUCCUUAAAGUCAGGGCUUUAGCGCAAUUUUCUUCAAGUGGUUCCAACAGAGGAUUGAGCAUCA
B2: 123193944_123195740_1386_CDS_ENSMUSG00000029471_ENSMUST00000111668|mouse|control|control (ssRNA)
RNA: GGGAGUUCUACAGUCCGACGAUCCAAGUCUUCGGCUAUAUCGGGCUGGUCGGGAAACUCCAGGGCCUGACUCUUGAUCUUACUGUGCAAACACAUGAUUCGUUCAUCCAUGAAAGGGCACUGGCCAAAGACAAAGCAGUACAGCAACAGAGGAUUGAGCAUCA
B3: chr1:46159212:46159213:+_ENSG00000159596_ENST00000372025|hu_mus|hu_hu_hu_mus_True|1_18 (ssRNA)
RNA: GGGAGUUCUACAGUCCGACGAUCUCUGAUCCCUCCCAAGAAAGCUAGGAAACCGGCUCCAUAAGCCAUCUGAGUGAAAGCUAGGACGGGGAUAUAAGACUUUGUUAUUACCAUGAGCAGUGGUGGAGCAGUAAAGGGGAUUAGCAACAGAGGAUUGAGCAUCA
B4: chr1:38108737:38108738:+_ENSMUSG00000026083_ENSMUST00000027252|mus_hu|FALSE|FALSE (ssRNA)
RNA: GGGAGUUCUACAGUCCGACGAUCAAGGGCAAACUUUAAAACAGCAGCCAAGUAGAGAAGGGUUGGGGAAGGGAGAGGUGAGUGAACAGGCACAUUGGAACUGUGGGGACAUGUAACUGACCACUGUCAAACCAGUGUAAGUUUCAACAGAGGAUUGAGCAUCA
B5: 133308728_133308848_738_3pUTR_ENSMUSG00000007880_ENSMUST00000145664|mouse|control|control (ssRNA)
RNA: GGGAGUUCUACAGUCCGACGAUCGGACGAAGACGACGAGGAGGCAGAGGCGCUGGAGGAGGGAGGCGGCUUGGAGCCGGCGGCCGCCGCCGCGCCGGAGCCCGGAGUGCCACCUCUCGGGGAGCUCAGCGCGUAGGCCUGGGGCAACAGAGGAUUGAGCAUCA
B6: chr3:47719781:47719782:-_ENSG00000173473_ENST00000254480|hu_hu|motif|central (ssRNA)
RNA: GGGAGUUCUACAGUCCGACGAUCAUGGACCCUCAUCACAGCACACACAUCUCCAGUCAAGUUCCUCCGACAAGCAGUGCGGGUUAAAUACUCUUGGGGGUUUAGACGAUACGUGUCAAUCAUAAAAUUUCGAUAUGCCAAGUACAACAGAGGAUUGAGCAUCA

For this experiment, the target named is T1, UNK ZnF1-3 (human, UniProt Q9C0B0 31-174).
T1 sequence: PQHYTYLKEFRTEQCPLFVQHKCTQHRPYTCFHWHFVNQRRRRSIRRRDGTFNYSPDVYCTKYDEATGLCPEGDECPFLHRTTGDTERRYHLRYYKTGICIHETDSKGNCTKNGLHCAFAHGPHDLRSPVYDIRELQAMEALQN
In words: nsRBNS (natural sequence RNA bind-n-seq); RBNS binding buffer (assumed for nsRBNS): 25 mM Tris pH 7.5, 150 mM KCl, 3 mM MgCl2, 0.01% Triton X-100, 500 ug/ml BSA, 20 U/ml SUPERase-In, 4 C; UNK is unkempt and MSI1 is Musashi-1; names of the RNAs are library labels; protein concentration not given here; high values mean tight binding.
Regarding B1, the binding signal was 1.09 enrichment R.

For B2, the binding signal is 0.895 enrichment R.

B3 showed a binding signal of 2.41 enrichment R.

On to B4, for which the binding signal worked out at 1.77 enrichment R.

For the molecule B5, the binding signal amounted to 0.963 enrichment R.

The molecule B6 had a binding signal of 1.9 enrichment R.
